Test results published in PubChem BioAssay AID1345082 (National Center for Advancing Translational Sciences (NCATS), 2018).
About 4,000 (4.3%) of roughly 94,000 compounds were called active. Inconclusive results, whose numbers are uncertain, are shown with a selection of clear calls. Calls follow the shape of the dose curve; as a rule, active = well fitted inhibition curve with a large enough effect; inconclusive = small, poorly fitted or top-dose-only effect; inactive = no such curve, though single readings can be large or run the other way. A potency beside an inconclusive call is a rough fit, not a confirmed value.

Assay: Cytotoxic Profiling in NIH 3T3 Cell Line of Diverse Libraries Using Quantitative High-Throughput Screening; also: nearly all actives have a fitted effect of over 55% in size
Settings: NIH 3T3 viability, CellTiter-Glo ATP luminescence, 48-72 h; activity change, negative = cytotoxicity: at 96.7 µM (top of the series) unless noted; series mostly up to 96.7 µM
Summary of the method: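 First NIH 3T3 cells are plated at 400 cells/well; next compound is pinned in; then plates incubate 48 or 72 hr at 37 °C; finally CellTiter-Glo is added and luminescence read after 10 min.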
% is scaled to controls: 0 for no effect and ±100 for the full control effect; potency is read from the fitted curve at half-maximal effect; tags tell the direction and shape of the fitted curve.

Question: With `O=C(NCc1ccc(F)cc1)C1CCCCN1Cc1ccc(-c2ccsc2)cc1` (centres undefined) as the molecule, how does the Potency read?
Answer: inconclusive: 28.2 µM [inhibitor, full curve, poor fit]

Question: With `CC(C)(C)C(=O)NC1CCN(C(=O)c2ccc(-c3cccs3)cc2)CC1` as the molecule, how does the Potency read?
Answer: inconclusive: 44.7 µM [inhibitor, partial curve, poor fit]

Question: Which “outcome” value does the source give for `Cc1nn(C)c(C)c1CCN(C)C(=O)CCC[C@H]1NC[C@@H]2C[C@H]1CN(Cc1ccccc1)C2` here?
Answer: inactive

Question: Which Potency does the source give for `COc1ccc(CN2CCOc3nc(-c4ccc(F)cc4F)ncc3C2=O)cc1` here?
Answer: inconclusive: 89.1 µM [inhibitor, partial curve, poor fit]

Question: With `CC(C)(C)C(=O)N1CCCN(Cc2ccc3c(c2)OCO3)c2ccccc21` as the molecule, how does the Potency read?
Answer: inconclusive: 39.8 µM [inhibitor, partial curve, poor fit]

Question: For `COc1ccccc1NC(=O)C1c2ccccc2C(=O)N(Cc2ccccc2)C12CCCC2` (centres undefined), which Potency is on record?
Answer: inconclusive: 44.7 µM [inhibitor, partial curve, poor fit]

Question: For `O=C(c1c[nH]c(=O)cn1)N1C[C@H](CO)C[C@H](CN2CCOCC2)C1`, which “outcome” value is on record?
Answer: inactive

Question: With `COc1ccc(CCC(=O)N2C[C@@H](Oc3cccnc3)C[C@H]2C(=O)N2CCOCC2)cc1` as the molecule, how does the “activity change, negative = cytotoxicity” value read?
Answer: inactive: -6.21%

Question: With `O=C(NCCCc1ccccc1)C1CCN(c2nc3ncccc3o2)CC1` as the molecule, how does the “activity change, negative = cytotoxicity” value read?
Answer: inactive: -29.1%

Question: Which Potency does the source give for `CN1CCN(c2nc3c(s2)CN(C(=O)CCC2CCCC2)CC3)CC1` here?
Answer: inconclusive: 39.8 µM [inhibitor, partial curve, poor fit]

Question: Which Potency does the source give for `COCC(=O)NC1CCC12CCN(S(=O)(=O)c1cccc(OC)c1)CC2` (centres undefined) here?
Answer: inconclusive: 50.1 µM [inhibitor, single point]

Question: With `O=c1c2c(n(Cc3cccnc3)n1CCc1ccccc1)CN(Cc1cccc(O)c1)CC2` as the molecule, how does the Potency read?
Answer: inconclusive: 56.2 µM [inhibitor, partial curve, poor fit]

Question: Which Potency does the source give for `COc1ccccc1Oc1c(CCC(=O)NCC(C)C)c(C)nn1-c1ccc(F)cc1` here?
Answer: inconclusive: 50.1 µM [inhibitor, partial curve, poor fit]

Question: For `Cc1ccc(CN2CCc3oc(C)c(C(=O)NC4CCCC4)c3C2)cc1`, which “activity change, negative = cytotoxicity” value is on record?
Answer: inactive: -40.5%

Question: Which “activity change, negative = cytotoxicity” value does the source give for `COc1ccccc1CC(=O)N1CCCc2ncc(C(=O)Nc3ccccn3)cc21` here?
Answer: inactive: -4.65% [at 138 µM]

Question: With `O=C(NCC1CC1)c1ccc2nnc(-c3cccc(C(F)(F)F)c3)n2c1` as the molecule, how does the Potency read?
Answer: inconclusive: 44.7 µM [inhibitor, partial curve]

Question: For `COc1ccc(C(CC(=O)N2CCCC2)c2c[nH]c3ccccc23)cc1` (centres undefined), which “activity change, negative = cytotoxicity” value is on record?
Answer: inactive: -29.1%

Question: With `O=C(Nc1cccc(F)c1)c1cc2n(n1)CC(c1ccc(Br)cc1)OC2` (centres undefined) as the molecule, how does the Potency read?
Answer: inconclusive: 70.8 µM [inhibitor, single point]

Question: For `O=c1n(-c2ccncc2)nc2n1CCN(Cc1ccc(F)cc1)C2`, which Potency is on record?
Answer: inconclusive: 50.1 µM [inhibitor, partial curve, poor fit]

Question: For `CCOC(=O)[C@@H]1[C@@H](OC)C(=O)N(C(C)C)C12CCN([S+](=O)([O-])c1ccc(NC(C)=O)cc1)CC2`, which Potency is on record?
Answer: inconclusive: 56.2 µM [inhibitor, partial curve, poor fit]

Question: With `O=C(NC1CCN(c2nccc(Nc3ccccc3Cl)n2)CC1)c1ccccc1F` as the molecule, how does the Potency read?
Answer: inconclusive: 39.8 µM [inhibitor, partial curve, poor fit]

Question: Which Potency does the source give for `Cn1cc(-c2cnc3[nH]cc(CC(=O)N4CCCC4)c3c2)cn1` here?
Answer: active: 31.6 µM

Question: Which Potency does the source give for `COc1ccc(-c2nc(C(C)C)nc3c2CCN(C(=O)Nc2ccccc2)CC3)cc1` here?
Answer: inconclusive: 50.1 µM [inhibitor, partial curve, poor fit]

Question: With `O=C(Nc1cccc2ccccc12)O[C@@H]1CO[C@H]2[C@@H]1OC[C@@H]2NS(=O)(=O)c1ccc2ccccc2c1` as the molecule, how does the Potency read?
Answer: active: 79.4 µM

Question: For `O=C(Cc1ccc(N(Cc2ccc(F)cc2)C(=O)c2ccco2)cc1)NCc1ccc(F)cc1`, which Potency is on record?
Answer: active: 39.8 µM

Question: For `c1cc(-c2cc(-c3ccncc3)c3cncn3c2)c2cc[nH]c2c1`, which Potency is on record?
Answer: inconclusive: 7.08 µM [inhibitor, full curve, poor fit]

Question: Which “activity change, negative = cytotoxicity” value does the source give for `COc1cccc(CNC(=O)[C@@H]2C[C@@H](O)CN2C2CCN(C(=O)c3ccc(C)s3)CC2)c1` here?
Answer: inactive: -17.2%

Question: Which Potency does the source give for `COc1cncc(CN2CC[C@@H]3OCC(=O)N(Cc4ccccc4)[C@H]3CC2)c1` here?
Answer: inconclusive: 44.7 µM [inhibitor, single point]

Question: For `COc1ccc(Nc2ccnc(N3CCCC(C(=O)NCCc4ccccc4F)C3)n2)cc1` (centres undefined), which Potency is on record?
Answer: inconclusive: 22.4 µM [inhibitor, full curve, poor fit]

Question: Which Potency does the source give for `CC(=O)c1cccc(NC(=O)O[C@@H]2CO[C@H]3[C@@H]2OC[C@@H]3NC(=S)NC2CCCCC2)c1` here?
Answer: inconclusive: 25.1 µM [inhibitor, partial curve, poor fit]

Question: With `O=C([C@@H]1C[C@H](Oc2cccnc2)CN1C(=O)Cc1ccccc1)N1CCCC1` as the molecule, how does the “activity change, negative = cytotoxicity” value read?
Answer: inactive: -27.4%

Question: For `O=C(c1ccccc1Cl)N1CCC(C(=O)N2CCC(N3Cc4cccn4C3=O)CC2)CC1`, which “activity change, negative = cytotoxicity” value is on record?
Answer: inactive: -22.4%

Question: Which Potency does the source give for `COCc1ccc2c(c1)c(OC(C)(C)C(=O)NC1CCC(O)CC1)nn2CCC(C)C` (centres undefined) here?
Answer: active: 12.6 µM

Question: For `O=C(Nc1ccc2ncnc(N3CCCCC3)c2c1)c1ccccc1`, which Potency is on record?
Answer: inconclusive: 44.7 µM [inhibitor, partial curve, poor fit]

Question: Which Potency does the source give for `COc1ccc2cc1Nc1ccc(cc1)C[C@H](NCc1ccc(C)o1)C(=O)N(C)[C@@H](C(=O)NCc1ccccc1)C2` here?
Answer: inconclusive: 35.5 µM [inhibitor, partial curve]

Question: With `COc1cccc(-c2ccc(C(=O)N3CCC(NC(=O)c4ccccc4F)CC3)cc2)c1` as the molecule, how does the Potency read?
Answer: inconclusive: 50.1 µM [inhibitor, partial curve, poor fit]

Question: With `CC1=C[C@@H](CNC(=O)c2cnccn2)[C@H](C(C)C)C[C@H]1Cc1nc2ccc(C)cc2[nH]1` as the molecule, how does the Potency read?
Answer: inconclusive: 50.1 µM [inhibitor, full curve, poor fit]

Question: Which Potency does the source give for `O=C(NCCc1ccc(Cl)cc1)c1ccc2nnc(-c3cc(F)ccc3F)n2c1` here?
Answer: inconclusive: 50.1 µM [inhibitor, partial curve, poor fit]

Question: With `CN1CCC(NC(=O)C(C)(C)Oc2nn(Cc3cccc(Cl)c3)c3ccccc23)CC1` as the molecule, how does the Potency read?
Answer: active: 31.6 µM
